The full ranking holds about 33,000 sequences; the median of “E-score (-0.5 to 0.5)” is about -0.016, and the highest 2% start at about 0.32. The list shows a part of the results.

The target of this assay is T1, Stp1 (UniProt B3LFK1).
T1 sequence: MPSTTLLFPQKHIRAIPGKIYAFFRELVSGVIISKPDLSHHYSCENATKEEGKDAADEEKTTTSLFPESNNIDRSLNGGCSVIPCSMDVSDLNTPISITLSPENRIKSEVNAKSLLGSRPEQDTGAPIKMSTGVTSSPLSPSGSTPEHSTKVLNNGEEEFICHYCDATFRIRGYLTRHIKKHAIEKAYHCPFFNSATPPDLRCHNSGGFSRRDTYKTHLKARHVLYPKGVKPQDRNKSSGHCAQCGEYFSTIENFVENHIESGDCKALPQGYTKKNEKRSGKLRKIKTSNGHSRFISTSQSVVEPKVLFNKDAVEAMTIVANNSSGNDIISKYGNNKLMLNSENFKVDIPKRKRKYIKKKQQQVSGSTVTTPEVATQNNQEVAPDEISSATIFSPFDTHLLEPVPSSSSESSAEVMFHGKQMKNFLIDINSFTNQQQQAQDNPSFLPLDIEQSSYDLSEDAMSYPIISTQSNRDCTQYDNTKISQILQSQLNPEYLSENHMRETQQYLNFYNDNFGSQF
The assay can be described thus: PBM E-score (8-mer binding enrichment) (E-score (-0.5 to 0.5)); higher = stronger / more preferred TF binding; most listed sequences are background and not binding sites. To be noted: protein concentration: 200 nM; construct: GST-full length. As to the method: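 Universal 'all 10-mer' protein binding microarrays (Agilent AMADID 015681) probed with GST-tagged S. cerevisiae TFs (full-length or DBD) made by in vitro transcription/translation (PURExpress), about 100-200 nM. Bound TF was detected with fluorescent anti-GST. Each ungapped 8-mer (which stands for itself and its reverse complement) is scored by the PBM enrichment score (E-score), a modified Wilcoxon-Mann-Whitney statistic from -0.5 to +0.5, computed with the Universal PBM Analysis Suite. Scale: above 0.35 generally sequence-specific binding.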
For the sequence TACTGAGA, the “PBM E-score” value was -0.0462.
Next, ACTTCTTA: 0.0494; AAAAATCG: -0.0478; AAGCTCCT: -0.271.
As to AAACGGGA, the “PBM E-score” value worked out at 0.00151.
On to AAGTTCCG, for which the “PBM E-score” value was determined as 0.125.
The figure for GTGCAGGA is -0.209.
The figure for CTATGATA is 0.152; for CAGCTCTA it is -0.153.
On to GCCCCGAA, for which the “PBM E-score” value is -0.0149.
Consider TCGGTAGA, for which the “PBM E-score” value is -0.0266.
On to CAGTCTAA, for which the “PBM E-score” value is 0.122.
As for TGACCCCA, the “PBM E-score” value is -0.298.
The figure for AGTTAACG is 0.0353; for ACGGGCTG it is -0.156.
Next, GGCTAGCC: -0.197.
Regarding GGCCGTTA, the “PBM E-score” value is 0.1.
In the case of GGGGGGCA, the “PBM E-score” value was -0.344.
As to GTCGTTTA, the “PBM E-score” value amounted to 0.0978.
The figure for ACCCCAGT is -0.229; for AGATGATG it is -0.0725.
CAGGAAGG: the “PBM E-score” value was -0.0876.
The figure for CTTCCATA is -0.0335; for CAGGTAGA it is -0.174; for GCTCACTA it is -0.18.
The figure for AATTACCT is -0.0199; for CTTAGCTC it is -0.116.
For the sequence GGGCATTA, the “PBM E-score” value amounted to 0.139.
On to CCTTCCAC, for which the “PBM E-score” value is -0.0469.
In the case of ACAGTGAG, the “PBM E-score” value was -0.189.
Next, ACCGGCAC: 0.301; CTTAGACC: -0.0741.
On to AGAGGGAG, for which the “PBM E-score” value was -0.306.
The figure for AAAATCTT is 0.02.
With AAGGTACC, the “PBM E-score” value is -0.145.
The figure for GTTACAAA is 0.134; for CCAGCGCA it is -0.117.
For the sequence AGGGGCTC, the “PBM E-score” value was -0.235.
The figure for GCCCAGTA is -0.14; for TACCCTCA it is -0.124.
The figure for GACGAACC is -0.173; for ATGGTAGC it is -0.0618; for CCTCTTCC it is -0.17.
For ACTTGTAC, the “PBM E-score” value was 0.0123.
Consider AGGAGGCG, for which the “PBM E-score” value was 0.201.
As to GAGGCACA, the “PBM E-score” value was 0.332.
For the sequence TAAGCGTA, the “PBM E-score” value came to 0.018.
For the sequence CGCGGTTC, the “PBM E-score” value came out at 0.0607.
Turning to CAGCTGAC, the “PBM E-score” value is 0.0168.
On to CACACTCG, for which the “PBM E-score” value amounted to 0.0209.
Next, ACGGCAGT: 0.403; CGTTGTGC: 0.0391; AAGGCGAC: 0.224.
As for CTATCGGC, the “PBM E-score” value was -0.0112.
ATTCCTTC: the “PBM E-score” value is 0.0787.
As to GAGATATA, the “PBM E-score” value was 0.105.
On to ATCCACAA, for which the “PBM E-score” value is -0.0164.
Next, GCAGGAGC: -0.0737; CACGTCGC: -0.125; ACACCATG: -0.135.
Regarding CCAAACAA, the “PBM E-score” value is 0.0612.
On to GGAAACAA, for which the “PBM E-score” value is -0.169.
ACGAATAC: the “PBM E-score” value is -0.024.
On to AGTTGTGA, for which the “PBM E-score” value was found to be 0.141.
As for AATACGGC, the “PBM E-score” value worked out at 0.453.
Regarding ACACTAAT, the “PBM E-score” value stood at 0.138.
Turning to CGGCTGTC, the “PBM E-score” value was 0.129.
Regarding CCCCTGTA, the “PBM E-score” value was -0.197.
Take AACAATCC: the “PBM E-score” value stood at 0.108.
The figure for CAATCAAA is 0.06.
The figure for AGACTCTA is -0.159; for CCCGGCTC it is -0.238; for CCTTCGAA it is 0.0509.
The figure for CGAGCGTC is -0.0961; for TAGATTAA it is 0.236; for AAGCCTCG it is 0.0868.
On to GATCAGAC, for which the “PBM E-score” value is -0.113.
Next, ATTATTGC: 0.185.
On to CCGCCCGC, for which the “PBM E-score” value was determined as 0.075.
On to CCTTGTAA, for which the “PBM E-score” value is 0.167.
As for ACAATCAG, the “PBM E-score” value came to 0.147.
As to GGGTCTTA, the “PBM E-score” value is -0.0616.
As for GTACGTTA, the “PBM E-score” value came out at 0.0174.
With ACCTCCGT, the “PBM E-score” value was -0.0344.
As to CACTTAAC, the “PBM E-score” value is -0.0179.
In the case of ATTATAAT, the “PBM E-score” value came out at 0.253.
In the case of CTTGTGGC, the “PBM E-score” value is -0.0933.
GTTTCGTA: the “PBM E-score” value is 0.137.
On to GGGGCCCC, for which the “PBM E-score” value was -0.2.
With CTTCCGAC, the “PBM E-score” value was -0.123.
Regarding CTTATACC, the “PBM E-score” value is -0.0352.
Consider AGTCTAAA, for which the “PBM E-score” value is -0.143.
In the case of CCAGAAAC, the “PBM E-score” value turned out to be 0.0755.
With ACCAACTC, the “PBM E-score” value was -0.122.
In the case of ACGCCAGT, the “PBM E-score” value was -0.0382.
In the case of GAAGCAAA, the “PBM E-score” value is -0.0659.
Take AAGCGGCA: the “PBM E-score” value stood at 0.455.
Turning to AAGTTGCA, the “PBM E-score” value turned out to be 0.0435.
Take ATCAACTC: the “PBM E-score” value is -0.101.
On to CTCGAGAC, for which the “PBM E-score” value was 0.062.
Next, GTTATATA: 0.0217; CCGCGCGA: 0.314; TGTACGAA: 0.0629.
CAGTAGGC: the “PBM E-score” value worked out at 0.124.
For the sequence AACCCAAG, the “PBM E-score” value was -0.0891.
As for CGGGGCGA, the “PBM E-score” value is 0.149.
Next, AGTACGAT: 0.136; CTGATCTC: -0.0952; CAAATCTC: 0.0287.

These data come from the supplement of paper PMC3334620.
